Drawing on the supplement of paper PMC4604168 (melanoma cell lines), this text covers cell count for 21 compounds.

This is one part of the list. Most values come without repeats; read them as rough.

Test systems include A101D; A2058; A375.
What all share (experiment): cell count relative to DMSO control; melanoma cells; higher = more viable cells
What all share (conditions): library dose: standard library concentration; 72 h
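Further: cells treated in 1,536-well plates, then fixed and DAPI-stained, with nuclei counted from automated high-throughput microscope images.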

With `CC(=O)O[C@@]12CO[C@@H]1C[C@H](O)[C@@]1(C)C(=O)[C@H](O)C3=C(C)[C@@H](OC(=O)[C@H](O)[C@@H](NC(=O)OC(C)(C)C)c4ccccc4)C[C@@](O)([C@@H](OC(=O)c4ccccc4)[C@H]21)C3(C)C` [Docetaxel] + Nc1ccn([C@@H]2O[C@H](CO)[C@@H](O)C2(F)F)c(=O)n1 [gemcitabine] (first compound 0.0005 µM, partner dose 0.002 µM), the results for the cell count with A101D, in the test on A2058 and in the test with A375 were 57.6%, 10.2% and 69.6%, respectively.
As to `Nc1ncn([C@H]2C[C@H](O)[C@@H](CO)O2)c(=O)n1` [decitabine] + CN(NC(=O)CC(=O)NN(C)C(=S)c1ccccc1)C(=S)c1ccccc1 [STA4783] (first compound 0.5 µM, partner dose 0.03 µM), the cell count in the test on A101D was determined as 74.6%; in the test on A2058, 59.3%; in the test with A375, 107%.
With `CO[C@H]1C[C@@H]2CC[C@@H](C)[C@@](O)(O2)C(=O)C(=O)N2CCCC[C@H]2C(=O)O[C@H]([C@H](C)C[C@@H]2CC[C@@H](OCCO)[C@H](OC)C2)CC(=O)[C@H](C)/C=C(\C)[C@@H](O)[C@@H](OC)C(=O)[C@H](C)C[C@H](C)/C=C/C=C/C=C/1C` [everolimus] + O=C(Nc1cccc(Cl)c1)Nc1ncc(CCNc2ncnc3ccsc23)s1 [SNS314] (first compound 0.1 µM, partner dose 0.004 µM), the cell count came out at 76.4% in the test on A101D, 70.2% in the test on A2058 and 107% in the test on A375.
Taken in the same sequence, the figures for `CO[C@H]1C[C@@H]2CC[C@@H](C)[C@@](O)(O2)C(=O)C(=O)N2CCCC[C@H]2C(=O)O[C@H]([C@H](C)C[C@@H]2CC[C@@H](OCCO)[C@H](OC)C2)CC(=O)[C@H](C)/C=C(\C)[C@@H](O)[C@@H](OC)C(=O)[C@H](C)C[C@H](C)/C=C/C=C/C=C/1C` [everolimus] + C=CCNC1=C2C[C@@H](C)C[C@H](OC)[C@H](O)[C@@H](C)/C=C(\C)[C@H](OC(N)=O)[C@@H](OC)/C=C\C=C(/C)C(=O)NC(=CC1=O)C2=O [Tanespimycin] (first compound 0.1 µM, partner dose 0.01 µM) were 53.7%, 59.6% and 78.7%.
Turning to `CC(=O)c1c(C)c2cnc(Nc3ccc(N4CCNCC4)cn3)nc2n(C2CCCC2)c1=O` [palbociclib] + NC(=O)Nc1cc(-c2cccc(F)c2)sc1C(=O)N[C@H]1CCCNC1 [AZD7762] (first compound 0.2 µM, partner dose 0.1 µM), the cell count with A101D is 59.8%; with A2058, 66.3%; in the test on A375, 74.2%.
Take `Nc1ccn([C@@H]2O[C@H](CO)[C@@H](O)C2(F)F)c(=O)n1` [gemcitabine] + NC(=O)Nc1cc(-c2cccc(F)c2)sc1C(=O)N[C@H]1CCCNC1 [AZD7762] (first compound 0.002 µM, partner dose 0.1 µM): the cell count in the test on A101D was 47.5%; in the test with A2058, 8.27%; in the test on A375 it was 51.7%.
Taken in the same sequence, the figures for `Nc1ccn([C@@H]2O[C@H](CO)[C@@H](O)C2(F)F)c(=O)n1` [gemcitabine] + COc1ccc(Cl)c(Nc2nc3ccccc3nc2NS(=O)(=O)c2cccc(NC(=O)C(C)(C)N)c2)c1 [XL147] (first compound 0.002 µM, partner dose 4 µM) were 86.6%, 77.1% and 94.9%.
In the case of `Nc1ncn([C@H]2C[C@H](O)[C@@H](CO)O2)c(=O)n1` [decitabine] + CC(=O)c1c(C)c2cnc(Nc3ccc(N4CCNCC4)cn3)nc2n(C2CCCC2)c1=O [palbociclib] (first compound 0.5 µM, partner dose 0.2 µM), the cell count was determined as 56.1% in the test with A101D, 74.6% with A2058 and 80.1% with A375.
For `CC(=O)O[C@@]12CO[C@@H]1C[C@H](O)[C@@]1(C)C(=O)[C@H](O)C3=C(C)[C@@H](OC(=O)[C@H](O)[C@@H](NC(=O)OC(C)(C)C)c4ccccc4)C[C@@](O)([C@@H](OC(=O)c4ccccc4)[C@H]21)C3(C)C` [Docetaxel] + CC(=O)c1c(C)c2cnc(Nc3ccc(N4CCNCC4)cn3)nc2n(C2CCCC2)c1=O [palbociclib] (first compound 0.0005 µM, partner dose 0.2 µM), in that order: 59.1%, 11.7% and 81.6%.
Taken in the same sequence, the figures for `CC(=O)O[C@@]12CO[C@@H]1C[C@H](O)[C@@]1(C)C(=O)[C@H](O)C3=C(C)[C@@H](OC(=O)[C@H](O)[C@@H](NC(=O)OC(C)(C)C)c4ccccc4)C[C@@](O)([C@@H](OC(=O)c4ccccc4)[C@H]21)C3(C)C` [Docetaxel] + CN1CCN(c2ccc3nc(-c4c(N)c5c(F)cccc5[nH]c4=O)[nH]c3c2)CC1 [Dovitinib] (first compound 0.0005 µM, partner dose 0.5 µM) were 42.6%, 7.38% and 46.9%.
Regarding `Nc1nc(F)nc2c1ncn2[C@@H]1O[C@H](CO)[C@@H](O)[C@@H]1O` [fludarabine] + Cc1ccc(NC(=O)c2cccc(N(C)C)c2)cc1NC(=O)c1ccc(O)cc1 [ZM336372] (first compound 1 µM, partner dose 10 µM), the cell count in the test with A101D is 93.4%; in the test with A2058, 78.8%; in the test with A375, 32.2%.
For `CC(=O)O[C@@]12CO[C@@H]1C[C@H](O)[C@@]1(C)C(=O)[C@H](O)C3=C(C)[C@@H](OC(=O)[C@H](O)[C@@H](NC(=O)OC(C)(C)C)c4ccccc4)C[C@@](O)([C@@H](OC(=O)c4ccccc4)[C@H]21)C3(C)C` [Docetaxel] + Cn1c(Nc2ccc(C(F)(F)F)cc2)nc2cc(Oc3ccnc(-c4ncc(C(F)(F)F)[nH]4)c3)ccc21 [CHIR265] (first compound 0.0005 µM, partner dose 0.4 µM), in that order: 52.1%, 8.47% and 57.3%.
Turning to `CO[C@H]1C[C@@H]2CC[C@@H](C)[C@@](O)(O2)C(=O)C(=O)N2CCCC[C@H]2C(=O)O[C@H]([C@H](C)C[C@@H]2CC[C@@H](OCCO)[C@H](OC)C2)CC(=O)[C@H](C)/C=C(\C)[C@@H](O)[C@@H](OC)C(=O)[C@H](C)C[C@H](C)/C=C/C=C/C=C/1C` [everolimus] + C=CCn1c(=O)c2cnc(Nc3ccc(N4CCN(C)CC4)cc3)nc2n1-c1cccc(C(C)(C)O)n1 [MK1775] (first compound 0.1 µM, partner dose 0.1 µM), the cell count in the test on A101D was determined as 66.2%; in the test with A2058 it was 41.2%; in the test with A375 it was 59.2%.
For `Nc1ccn([C@@H]2O[C@H](CO)[C@@H](O)C2(F)F)c(=O)n1` [gemcitabine] + Cc1cc(N2CCOCC2)cc2[nH]c(-c3c(NC[C@@H](O)c4cccc(Cl)c4)cc[nH]c3=O)nc12 [BMS536924] (first compound 0.002 µM, partner dose 1 µM), in that order: 91.5%, 83.2% and 130%.
Consider `Nc1ncn([C@H]2C[C@H](O)[C@@H](CO)O2)c(=O)n1` [decitabine] + CN(C)S(=O)(=O)c1ccc2c(c1)/C(=C/c1cc3c([nH]1)CCCC3)C(=O)N2 [SU6656] (first compound 0.5 µM, partner dose 2 µM), for which the cell count in the test on A101D came to 62.6%; in the test on A2058 it was 65.7%; in the test on A375, 146%.
Taken in the same sequence, the figures for `CC(=O)O[C@@]12CO[C@@H]1C[C@H](O)[C@@]1(C)C(=O)[C@H](O)C3=C(C)[C@@H](OC(=O)[C@H](O)[C@@H](NC(=O)OC(C)(C)C)c4ccccc4)C[C@@](O)([C@@H](OC(=O)c4ccccc4)[C@H]21)C3(C)C` [Docetaxel] + NCC(=O)Nc1ccc(-n2nc(C(F)(F)F)cc2-c2ccc3c(ccc4ccccc43)c2)cc1 [OSU03012] (first compound 0.0005 µM, partner dose 5 µM) were 38.4%, 6.36% and 58.5%.
Taken in the same sequence, the figures for `Nc1ncn([C@H]2C[C@H](O)[C@@H](CO)O2)c(=O)n1` [decitabine] + COc1cc(Nc2ncc(F)c(Nc3ccc4c(n3)NC(=O)C(C)(C)O4)n2)cc(OC)c1OC [Tamatinib] (first compound 0.5 µM, partner dose 2 µM) were 20.4%, 50.2% and 76.5%.
In the case of `CC(=O)O[C@@]12CO[C@@H]1C[C@H](O)[C@@]1(C)C(=O)[C@H](O)C3=C(C)[C@@H](OC(=O)[C@H](O)[C@@H](NC(=O)OC(C)(C)C)c4ccccc4)C[C@@](O)([C@@H](OC(=O)c4ccccc4)[C@H]21)C3(C)C` [Docetaxel] + Cn1cncc1[C@@](N)(c1ccc(Cl)cc1)c1ccc2c(c1)c(-c1cccc(Cl)c1)cc(=O)n2C [tipifarnib] (first compound 0.0005 µM, partner dose 0.05 µM), the cell count in the test on A101D was 46.3%; in the test with A2058, 3.61%; in the test on A375 it was 78.3%.
Taken in the same sequence, the figures for `CC(=O)c1c(C)c2cnc(Nc3ccc(N4CCNCC4)cn3)nc2n(C2CCCC2)c1=O` [palbociclib] + C=CCn1c(=O)c2cnc(Nc3ccc(N4CCN(C)CC4)cc3)nc2n1-c1cccc(C(C)(C)O)n1 [MK1775] (first compound 0.2 µM, partner dose 0.1 µM) were 58%, 76.2% and 62.4%.
Taken in the same sequence, the figures for `CC(=O)c1c(C)c2cnc(Nc3ccc(N4CCNCC4)cn3)nc2n(C2CCCC2)c1=O` [palbociclib] + COc1ccc(COc2ccc(Cc3cnc(N)nc3N)cc2OC)cc1 [GW2580] (first compound 0.2 µM, partner dose 5 µM) were 59.5%, 88.7% and 69.3%.
For `Nc1ccn([C@@H]2O[C@H](CO)[C@@H](O)C2(F)F)c(=O)n1` [gemcitabine] + CN(NC(=O)CC(=O)NN(C)C(=S)c1ccccc1)C(=S)c1ccccc1 [STA4783] (first compound 0.002 µM, partner dose 0.03 µM), in that order: 39.2%, 8.42% and 113%.
